Measurements as given in PubChem BioAssay AID624417 (National Center for Advancing Translational Sciences (NCATS), 2012).
Several values for one entry are separate records, joined by “and”; a condition that tells them apart may be missing. Equal values may be shown once. Out of some 410,000 compounds screened, about 6,400 (1.6%) were called active. The shares of active, inactive and inconclusive entries below differ from those in the screen. The call rests on the fitted dose curve; in most records, active means well fitted inhibition curve with a large enough effect; inconclusive means small, poorly fitted or top-dose-only effect; inactive means no such curve, though single readings can be large or run the other way. A potency beside an inconclusive call is a rough fit, not a confirmed value.

The molecules below were run against Glucagon-like peptide 1 receptor (Homo sapiens) (UniProt P43220) (assay: qHTS of GLP-1 Receptor Inverse Agonists (Inhibition Mode)). Details: HEK293 GLP-1R CRE-luciferase, luminescence, 24 h, GLP-1R form is constitutively active; activity change, negative = inhibition: at 38.3 µM (top of the series) unless noted.
Chain of UniProt P43220 (P43220 whole entry, looked up): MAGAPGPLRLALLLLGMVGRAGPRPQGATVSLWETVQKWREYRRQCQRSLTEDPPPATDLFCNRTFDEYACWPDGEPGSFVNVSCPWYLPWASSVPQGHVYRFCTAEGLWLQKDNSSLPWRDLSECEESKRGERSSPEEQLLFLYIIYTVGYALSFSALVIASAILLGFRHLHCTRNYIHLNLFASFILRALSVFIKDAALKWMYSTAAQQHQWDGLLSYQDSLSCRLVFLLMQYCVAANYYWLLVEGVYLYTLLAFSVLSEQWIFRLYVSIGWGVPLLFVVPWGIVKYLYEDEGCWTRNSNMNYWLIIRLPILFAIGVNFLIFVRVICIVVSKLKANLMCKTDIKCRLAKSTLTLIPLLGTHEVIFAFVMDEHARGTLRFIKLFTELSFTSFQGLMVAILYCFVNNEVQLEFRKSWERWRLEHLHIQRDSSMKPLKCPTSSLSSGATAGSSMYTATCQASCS
How it was run: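 Seeding at 200 cells/uL, 12 h culture, 24 hr compound treatment, then luciferase reagent and a luminescence read; cells are HEK293 stably expressing a constitutively active GLP-1R plus cAMP-responsive luciferase.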
Further: nearly all actives have a fitted effect of over 55% in size.
On the % scale 0 is the no-effect control and ±100 the full control effect; potency means the concentration at half of the fitted maximal effect; tags describe the fitted curve by direction and shape.

Row | SMILES | Potency | activity change, negative = inhibition
1 | O=C(NCc1ccc(Cl)cc1)C1CCN(S(=O)(=O)c2ccc(F)cc2)CC1 | inconclusive: 14.1 µM [inhibitor, single point] and inconclusive: 28.2 µM [inhibitor, single point] | –
2 | COc1cc2c(cc1OC)C(=O)C(Br)CC2 (stereo unspecified) | inconclusive: 20 µM [inhibitor, single point] | –
3 | O=C1CC(c2ccco2)Cc2nc(Nc3ccc(F)cc3)ncc21 (stereo unspecified) | inconclusive: 28.2 µM [inhibitor, single point] | –
4 | CCN1CCN(c2ncnc3scc(-c4ccc(C)c(C)c4)c23)CC1 | inconclusive: 12.6 µM [inhibitor, single point] | –
5 | CCCCCNC(=O)C(c1cccc2ccccc12)n1c(=O)c(-c2ccco2)nc2ccccc21 (stereo unspecified) | inconclusive: 28.2 µM [inhibitor, single point] | –
6 | OC(CCCC(O)c1ccccc1)c1ccccc1 (stereo unspecified) | inactive | –
7 | C=CCNC(=O)C1CC1(c1cccc(C)c1)c1cccc(C)c1 (stereo unspecified) | inconclusive: 10 µM [inhibitor, single point] | –
8 | S=C1NC[C@H](Cc2ccccc2)N1CC1CCN(CCCCc2ccccc2)CC1 | inconclusive: 10 µM [inhibitor, partial curve, poor fit] | –
9 | Cc1cc(C)cc(NC(=O)C(=S)NCc2ccccc2)c1 | active: 11.2 µM | –
10 | CC(=O)Nc1sc(C)c(C)c1C(=O)OCC(=O)N(CC(C)C)C1CCS(=O)(=O)C1 (stereo unspecified) | inactive | –
11 | Cc1onc(-c2ccccc2)c1C(=O)OCC(=O)Nc1cc(S(=O)(=O)N2CCOCC2)ccc1Cl | inconclusive: 14.1 µM [inhibitor, single point] | –
12 | O=C(Nc1cccc(F)c1)c1ccc(S(=O)(=O)N2CCCC2)cc1 | inconclusive: 14.1 µM [inhibitor, single point] | –
13 | Cc1ccc(NC(=O)c2ccc(CN3CCc4ccccc4C3)cc2)cc1 | inconclusive: 8.91 µM [inhibitor, partial curve] | –
14 | CN(C)CCNC(=O)c1ccc2nc(Cc3ccccc3)oc2c1 | inconclusive: 11.2 µM [inhibitor, partial curve] | –
15 | CN1CCC(=NNC(=O)CN(c2ccc([N+](=O)[O-])cc2)S(=O)(=O)c2ccccc2)CC1 | inconclusive: 8.91 µM [inhibitor, partial curve, poor fit] | –
16 | O=C(CCN1CCN(C/C=C/c2ccccc2)CC1)Nc1cccc(F)c1 | inconclusive: 22.4 µM [inhibitor, single point] | –
17 | O=C(Nc1ccc(F)cc1)C(CCc1ccccc1)N1CCN(CC(=O)N2CCCC2)CC1 (stereo unspecified) | inactive | –
18 | NC(COCc1ccccc1)c1csc(NC(=O)Nc2cccc(Cl)c2)n1 (stereo unspecified) | inconclusive: 28.2 µM [inhibitor, single point] | –
19 | CN1CCC(N(C)S(=O)(=O)c2ccc(NC(=O)COc3ccc(F)cc3)cc2)CC1 | inconclusive: 11.2 µM [inhibitor, partial curve, poor fit] | –
20 | COc1ccccc1Nc1ccc(NS(=O)(=O)c2ccc(C(C)=O)cc2)cc1 | inconclusive: 28.2 µM [inhibitor, single point] | –
21 | COc1ccc(OCC(=O)Nc2ccc3c(c2)nc(CN2CCCC2)n3C)cc1 | inconclusive: 7.94 µM [inhibitor, partial curve, poor fit] | –
22 | Cc1ccc(NC(=O)CN(C)C(=O)COc2ccc(C(=O)c3ccc(F)cc3)cc2)cc1 | inconclusive: 28.2 µM [inhibitor, single point] | –

Row | SMILES | Potency | activity change, negative = inhibition
23 | O=C1C(Cc2ccccc2)Nc2ncnc(N3CCN(c4ccccc4)CC3)c2N1Cc1ccc(Cl)cc1 (stereo unspecified) | active: 11.2 µM | –
24 | Cc1ccc(C(=O)Nc2nnc(-c3ccco3)o2)cc1 | inconclusive: 11.2 µM [inhibitor, single point] | –
25 | CN1CCN(NC(=S)Nc2ccc(Oc3ccccc3)cc2)CC1 | inconclusive: 20 µM [inhibitor, partial curve, poor fit] | –
26 | CCCCC(=O)N/N=C/c1ccc(Sc2cccc3cccnc23)o1 | inconclusive: 10 µM [inhibitor, single point] | –
27 | CCC1CCCCN1S(=O)(=O)c1ccc2c(c1)CCN2C(=O)C1CCC1 (stereo unspecified) | inconclusive: 28.2 µM [inhibitor, single point] | –
28 | COc1ccccc1N(C)S(=O)(=O)c1ccc(C(=O)Nc2cccc(S(=O)(=O)N3CCOCC3)c2)cc1 | inconclusive: 7.94 µM [inhibitor, partial curve] | –
29 | Cc1ccc(C(C)NC(=O)C2CCCC2)cc1C (stereo unspecified) | inconclusive: 12.6 µM [inhibitor, partial curve] | –
30 | CCN1CCN(c2ccc(S(=O)(=O)N3CCCCC3)cc2NC(=O)/C=C/c2cc(OC)ccc2OC)CC1 | inactive | –
31 | N#Cc1ccc(C#Cc2ccc3oc4ccccc4c(=O)c3c2)cc1 | inactive | –
32 | O=c1oc2ccccc2cc1-c1nc(-c2cccc(Cl)c2)cs1 | inactive | –
33 | CC[N+](CC)(CC)CCOc1cccc(OCC[N+](CC)(CC)CC)c1OCC[N+](CC)(CC)CC | inactive | –
34 | CC(C)(C)c1cc(NC(=O)c2cccc(S(=O)(=O)N3CCOCC3)c2)no1 | inconclusive: 5.62 µM [inhibitor, partial curve, poor fit] | –
35 | O=C(CSc1nc2ccccc2nc1Cc1ccc(Cl)cc1)N1CCCCC1 | active: 10 µM | –
36 | COc1cc2c(cc1OC)CN(CCC(=O)c1ccc(Br)cc1)CC2 | inactive | –
37 | CCCCOC(=O)c1ccc(NC(=O)c2ccc3c(c2)CCCN3S(C)(=O)=O)cc1 | inconclusive: 31.6 µM [inhibitor, single point] | –
38 | Cc1ccc(N2C(=O)C(Cl)=C(N3CCCCCC3)C2=O)c(C)c1 | – | inconclusive: -80.1% [inhibitor]
39 | CCc1cccc(C)c1NC(=O)CSc1nnc(-c2cc3cc(Br)ccc3o2)n1CC | inconclusive: 3.16 µM [inhibitor, partial curve, poor fit] | –
40 | NC(N)=N/N=C/c1ccccc1OC(F)F | inconclusive: 12.6 µM [inhibitor, single point] | –
41 | CCc1nnc(NC(=O)CSc2nnc(-c3ccccc3OC)n2-c2ccc(C)cc2)s1 | inconclusive: 11.2 µM [inhibitor, partial curve, poor fit] | –
42 | Fc1ccc(CNc2nc(-c3ccc(Cl)cc3)cc(C(F)(F)F)n2)cc1 | inconclusive: 15.8 µM [inhibitor, single point] | –
43 | CC1CCN(c2ccc(-c3cccs3)nn2)CC1 | inconclusive: 1.41 µM [inhibitor, full curve, poor fit] | –
44 | Cc1ccccc1N/N=C/c1ccc(C#N)cc1 | inconclusive: 5.62 µM [inhibitor, partial curve, poor fit] | –

Row | SMILES | Potency | activity change, negative = inhibition
45 | Cc1ccc(NC(=O)CN2CCCCCC2)cc1Br | inconclusive: 22.4 µM [inhibitor, single point] | –
46 | COc1ccc(/C=N/NC(=O)c2nnn(-c3nonc3N)c2CN(C)c2ccccc2)cc1 | inconclusive: 8.91 µM [inhibitor, partial curve] | –
47 | Cc1ccccc1OCC(=O)N/N=C/c1ccc(Sc2nc3ccccc3s2)o1 | inconclusive: 4.47 µM [inhibitor, full curve, poor fit] | –
48 | CC(C)(C)c1csc(NC(=O)c2ccc(Cl)s2)n1 | active: 2.82 µM | –
49 | CCC(CO)Nc1ncnc2c1cnn2-c1ccc(OC)cc1 (stereo unspecified) | inconclusive: 11.2 µM [inhibitor, single point] | –
50 | Cc1ccc(Cl)cc1-c1cc(C(=O)NCc2ccco2)[nH]n1 | inconclusive: 28.2 µM [inhibitor, single point] | –
51 | Cc1ccccc1CNC(=O)CN1CCSc2ccccc21 | inactive | –
52 | O=C(Nc1ccccc1N1CCCC1)c1ccc2c(c1)OCO2 | inconclusive: 22.4 µM [inhibitor, single point] | –
53 | Cc1cccc(C)c1OCC(=O)Nc1ccc2c(c1)OCCO2 | inconclusive: 11.2 µM [inhibitor, single point] | –
54 | CCC/C(C)=N/NC(=O)c1ccccc1O | inactive | –
55 | O=C(NCc1ccco1)/C(=C/c1ccc(Cl)cc1)NC(=O)c1ccco1 | inactive | –
56 | CCCCNS(=O)(=O)c1ccc(NC(=O)c2c(-c3ccccc3)noc2C)cc1 | inconclusive: 11.2 µM [inhibitor, single point] | –
57 | COc1ccc2nc(NC(=O)C3CCN(S(=O)(=O)c4cnc[nH]4)CC3)sc2c1 | inactive | –
58 | CC(CNS(=O)(=O)c1ccc2c(c1)NC(=O)CCS2)c1ccccc1 (stereo unspecified) | inconclusive: 8.91 µM [inhibitor, partial curve, poor fit] | –
59 | O=C1Nc2ccccc2C12OCC(COc1ccc(Cl)cc1)O2 (stereo unspecified) | inconclusive: 28.2 µM [inhibitor, single point] | –
60 | CCOc1ccc(/C=C(\C)C(=O)c2c(C)cc(C)[nH]c2=O)cc1 | inconclusive: 7.08 µM [inhibitor, partial curve, poor fit] | –
61 | COc1ccc(/C=N\NC(=O)c2ccc([N+](=O)[O-])c(C)c2)cc1COc1ccccc1C(N)=O | inconclusive: 28.2 µM [inhibitor, single point] | –
62 | COc1ccc(NC(=O)c2ccc(NC(=O)CN3CCN(c4ccc(O)cc4)CC3)cc2)cc1 | inconclusive: 4.47 µM [inhibitor, partial curve] | –
63 | COc1ccc(C(=O)N2CCN(CCNC(=O)C(=O)Nc3ccc(Br)cc3)CC2)cc1 | inactive | –
64 | COC(=O)c1c(NC(=O)CN2CCN(c3ncccn3)CC2)sc(C(N)=O)c1C | inactive | –
65 | CN(c1cnn(-c2ccccc2)c(=O)c1Cl)n1cccc1 | inactive | –
66 | O=C(c1ccc2c(c1)N(Cc1ccccc1Cl)C(=O)c1ccccc1S2)N1CCCC1 | inconclusive: 12.6 µM [inhibitor, partial curve, poor fit] | –
